# Laboratory results taken from the supplement of paper PMC12217912.
# The other results are listed elsewhere or left out. Sequences were assembled here from the parent chain. Inactive controls read about 0.05.
# B1: TEV protease; numbered along this chain (parent)
# chain: MGESLFKGPRDYNPISSSICHLTNESDGHTTSLYGIGFGPFIITNKHLFRRNNGTLVVQSLHGVFKVKDTTTLQQHLVDGRDMIIIRMPKDFPPFPQKLKFREPQREERICLVTTNFQTKSMSSMVSDTSCTFPSGDGIFWKHWIQTKDGQCGSPLVSTRDGFIVGIHSASNFTNTNNYFTSVPKNFMELLTNQEAQQWVSGWRLNADSVLWGGHKVFMVKPEEPFQPVKEATQL
# Variants of: B1
# Assay: raw area under fraction-flipped curve 0-4 h after induction (AUC4h, not background-subtracted), DNA-recorder readout of cleavage of the substrate (dimensionless); higher = more cleavage of the substrate by the protease variant
# Conditions: temperature: 34 °C; time window: 0-4 h after rhamnose induction
# Experimental: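 In vivo DNA recorder in E. coli TOP10(DE3) ΔrhaA at 34 °C. Each TEVp single-site mutant (parent TEVp 0) is paired with a single-site variant of the 7-mer TEVs (canonical ENLYFQ|S). The substrate sits between flexible linkers in a Bxb1-sfGFP-TEVs-SsrA fusion, so cleavage stabilises Bxb1 and speeds flipping of a recombination array, read by NGS. The value is the raw area under the fraction-flipped curve over 0-4 h after rhamnose induction (AUC4h), with ≥20 reads per time point. It is not background-subtracted; inactive controls average about 0.047.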
# 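Also: Bxb1 expression induced with 0.2% (w/v) L-rhamnose at OD600 near 0.5, cultures sampled hourly, flipped fraction per protease–substrate barcode pair counted by paired-end Illumina sequencing.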
Variant,area with substrate EALYFQS,area with substrate EDLYFQS,area with substrate EILYFQS,area with substrate ELLYFQS,area with substrate EMLYFQS,area with substrate ESLYFQS,area with substrate EVLYFQS,area with substrate EWLYFQS,area with substrate EELYFQS,area with substrate EFLYFQS
W203M,0.0791,0.0904,0.0702,0.0667,0.0703,0.0805,0.0577,0.0677,–,–
V229A,0.0824,0.0565,0.0804,0.0884,0.131,0.108,0.0874,0.0906,0.115,0.109
N193L,0.106,0.123,0.0664,–,–,0.0867,0.0819,–,–,–
T159N,0.121,–,–,–,0.121,–,–,–,–,–
Q197T,0.136,–,–,0.0867,–,0.157,0.0994,0.121,–,–
Q197M,0.13,–,0.0952,–,–,0.113,0.107,–,0.128,–
G153K,0.0621,–,–,–,–,–,0.038,–,0.0473,–
L5A,–,0.157,–,–,–,–,0.0921,0.113,–,0.0863
L5V,–,–,–,0.11,0.132,–,0.149,0.0932,0.137,–
N175H,0.115,–,0.083,–,–,0.0667,0.0969,0.07,–,–
N175I,0.0519,–,0.0599,0.0534,–,0.0889,0.109,–,–,0.0769
S158F,0.049,–,–,–,0.0465,–,0.0434,–,–,–
S158P,0.0554,0.049,0.0419,–,0.0561,0.0535,0.0473,0.0384,0.0676,0.0596
V183Q,0.0678,–,–,0.0533,–,0.0601,0.044,0.0609,0.0472,–
V210R,0.0749,–,0.0489,–,0.0945,0.0699,–,0.066,0.0732,–
V210H,0.0792,0.104,0.0764,–,–,0.115,0.0771,–,–,–
N178H,0.185,–,0.134,–,0.167,–,0.12,0.117,–,–
N178D,0.0688,–,–,0.0754,0.0685,0.0668,–,–,–,–
N178G,0.123,–,–,0.105,0.13,0.114,0.118,0.0976,0.15,–

Variant,area with substrate EALYFQS,area with substrate EDLYFQS,area with substrate EILYFQS,area with substrate ELLYFQS,area with substrate EMLYFQS,area with substrate ESLYFQS,area with substrate EVLYFQS,area with substrate EWLYFQS,area with substrate EELYFQS,area with substrate EFLYFQS
Q194Y,0.115,–,0.112,–,0.152,0.1,–,0.103,–,0.114
T174W,0.153,–,0.109,–,–,0.0902,–,0.0884,0.0378,0.0936
T174Q,0.105,–,0.0685,–,–,0.105,0.0823,–,0.117,–
Q234A,0.12,–,0.084,0.0781,0.132,0.084,–,–,–,–
S182I,0.0999,0.113,0.0914,0.0825,–,0.0907,0.0808,–,0.115,0.0965
E3L,–,–,0.0728,–,–,0.0674,–,–,0.0734,0.0941
A207G,0.0663,–,0.0969,–,0.12,0.0979,0.0917,0.0704,–,–
L191E,0.0666,0.0578,0.0614,–,–,0.0495,0.0546,0.0624,–,0.0578
L191S,0.0557,–,–,0.0361,–,0.0607,–,0.0709,0.0622,–
S171A,0.102,–,0.0795,–,–,–,0.0824,–,–,–
S171Q,0.063,–,–,–,–,0.0567,0.0791,–,0.0622,–
N206Y,0.0861,–,–,0.0735,0.0894,–,–,–,0.0887,–
K221G,0.0983,–,0.0371,0.0891,0.0733,0.0592,0.0858,–,0.103,0.0695
F226R,0.111,0.154,–,–,–,0.0925,0.0975,–,–,–
F226T,0.114,0.173,–,–,0.141,–,–,0.0918,–,–
L190A,0.12,–,–,–,–,0.133,0.148,–,0.119,0.118
W212C,0.118,–,0.137,0.0712,0.119,0.115,–,–,–,–
W212R,0.0504,0.0739,0.0574,0.0589,0.0606,0.0624,0.0715,0.0803,–,0.0572

# Same assay, conditions: temperature: 34 °C; time window: 0-4 h after rhamnose induction
Variant,area with substrate EQLYFQS,area with substrate ERLYFQS,area with substrate EPLYFQS,area with substrate ETLYFQS,area with substrate ECLYFQS,area with substrate EGLYFQS,area with substrate EKLYFQS,area with substrate EHLYFQS,area with substrate EYLYFQS
V229A,0.221,0.0933,–,–,–,–,–,–,–
N193L,0.08,–,0.1,0.101,–,–,–,–,–
T159N,0.116,–,0.134,–,0.091,–,–,–,–
Q197T,–,0.109,–,–,–,0.108,0.099,–,–
G153K,–,–,–,0.0302,–,–,–,–,–
L5A,0.165,0.101,–,–,0.117,–,–,0.116,0.118
L5V,0.12,0.102,0.124,–,0.148,0.132,0.0987,–,0.122
N175H,0.124,–,0.107,–,0.0926,–,–,–,–
N175I,–,0.0616,0.0734,–,0.0523,–,–,–,–
S158F,0.0561,–,–,0.049,0.0389,0.0476,–,–,–
S158P,–,–,0.0477,–,–,0.0586,0.0558,0.0403,0.0512
V183Q,–,0.0524,0.0522,–,–,0.05,0.0572,0.0595,–
V210R,–,0.0646,–,0.0594,–,–,0.0634,–,0.0642
V210H,0.065,0.129,–,0.0809,–,–,–,–,0.0727
N178H,0.132,–,0.143,0.161,–,0.0865,0.124,–,0.133
N178D,–,–,–,–,0.0624,–,–,–,0.0644
N178G,–,0.127,–,–,0.099,–,0.116,–,–
Q194Y,–,–,–,0.116,–,–,–,0.117,0.105

Variant,area with substrate EQLYFQS,area with substrate ERLYFQS,area with substrate EPLYFQS,area with substrate ETLYFQS,area with substrate ECLYFQS,area with substrate EGLYFQS,area with substrate EKLYFQS,area with substrate EHLYFQS,area with substrate EYLYFQS
T174W,–,–,0.122,–,–,0.0858,0.0796,–,–
T174Q,–,0.092,–,0.0956,0.073,–,0.0891,–,–
Q234A,0.117,–,–,–,0.109,–,0.0986,0.151,0.0829
S182I,0.111,0.0855,0.111,–,–,–,0.075,–,0.0751
E3L,0.072,0.0739,0.065,0.0526,0.0443,0.0551,0.048,0.0502,–
A207G,0.122,0.0893,0.114,–,0.105,0.0789,0.113,–,0.105
L191E,0.0402,0.0478,0.0665,0.0677,–,–,–,0.0971,–
L191S,0.0596,0.0609,–,–,–,–,0.0419,0.0594,–
S171A,0.095,0.0926,0.0854,–,0.0471,–,–,–,–
S171Q,–,–,–,–,–,–,–,0.0675,–
N206Y,–,0.0926,–,–,0.0614,–,–,–,0.0908
K221G,0.117,–,0.0964,0.125,–,–,0.101,0.0922,–
F226R,0.0769,–,–,0.0892,–,–,0.111,0.0943,–
F226T,–,–,–,0.166,–,–,–,–,–
L190A,0.0971,–,0.114,0.159,–,–,–,–,–
W212C,0.106,–,0.122,0.114,0.121,–,0.131,0.0858,–
W212R,0.0645,0.0544,–,0.0637,–,–,0.0295,–,–
